The source gives no read counts; variants with many changes may rest on few reads.
B1: CPEB3 Ribozyme (parent)
chain: UAACAGGGGGCCACAGCAGAAGCGUUCACGUCGCAGCCCCUGUCAGAUUCUGGUGAAUCUGCGAAUUCUGCUGUAUAUCUC

Variants of: B1
Assay: self-cleavage, relative activity (ratio to wild type); higher = more cleavage; in vitro, sequencing
Outline: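 Relative activity was defined as the cleaved/total read fraction for a variant divided by the same fraction for the unmutated ribozyme. CPEB3 self-cleaving ribozyme libraries were made by rounds of error-prone PCR, barcoded, and transcribed in vitro with T7 RNA polymerase for 5 hours at 37°C, and cleavage ran through transcription plus a 15 min DNase I step before EDTA. Illumina sequencing of template-switched reverse transcripts gave the reads, and DNA sequencing mapped the barcodes. Averages come from three batches, using variants with at least 5 reads.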
UAACAGGAGGCCUGAGCAGAAGCGUUCACGUAGCAGCCCCUGUCAGAUUCUGGUGAAUCUGCGAGUCCUGCUGUAUAUCUC [G8A A13U C14G C32A A65G U67C] showed a self-cleavage of 0.05.
Variant UAACAGGAGGCCACGGCAGAAGCGUUCACGUCGCAGCCCCAGUCAGAUUCUGGAGAAUCUGCGAAUUCUGCUGUAAAUCUC [G8A A15G U41A U54A U76A] has a self-cleavage of 0.38.
With UAACAGGAGGCCACGGCAGAAGCGUUCACGUCGCAGCCCCUGUCAGAUUCAGGUGGAUCUGCGGAUUCUGCUGUAUAUCUC [G8A A15G U51A A56G A64G] the self-cleavage was 0.05.
UAACAGGAGGCCUCAGCAGGAGCGUUCACGACGCUGCCCCUGUCAGAUUCCGGUGAAUCUGCGAAUUCUGCUGUAUAUCUC [G8A A13U A20G U31A A35U U51C] showed a self-cleavage of 0.06.
In the case of UAACAGGAGGCCACUGCAGAAGCGUUCACGUCGCAGCCCCUGUCAGACUCCGGUGAGUCUGCGAAUUCCGCUGUAUAUCUC [G8A A15U U48C U51C A57G U69C], the self-cleavage is reported as 0.05.
Variant UAACAGGAGGCCUCGGCAGAAGCGUUCACGUCGCAGCCCCUGUCAGAUUCUGGUGAAUCUGCGAAUUCUGCUGUAUAUCUC [G8A A13U A15G] has a self-cleavage of 0.12.
UAACAGGAGGCCACGGCAGAAGCGUUCACGUCGCAGCCCCUGUCAGACUCUGGUGAAUCUGCGAAUCCUGCUGUGUAUCUC [G8A A15G U48C U67C A75G] showed a self-cleavage of 0.11.
UAACAGGAGGCCUCCGCAGAGGCGUUCACGUCGCAGCCCCUGUCUGAUACUGGUGAAUCUGCGAAUUCUGCUGUAUAUCUC [G8A A13U A15C A21G A45U U49A] gave a self-cleavage of 0.19.
For UAACAGGAGGCCUCAGCAUAAGCGUUCACGUCGCAGCCCCUGUCAGAUUCUGGUGAAUCUGCGAAUCCUGCCGUAUAUCUC [G8A A13U G19U U67C U72C], the self-cleavage was 0.07.
UAACAGGAGGCCACGGCAGAAGCGUCCACGUCGCAGCCCCUGCCAGAUUCUGGUGAAUCUGCGAAUACUGCUGUAUAUCUU [G8A A15G U26C U43C U67A C81U] showed a self-cleavage of 0.06.
In the case of UAACAGGAGGCCUCAGCAGGAGCGUUCACGUCGCAGCCCCUGUCAGAUUCUGGUGAAUCUGCGAAUUCUGCUGAAUAUCUC [G8A A13U A20G U74A], the self-cleavage is reported as 0.32.
With UAACAGUGGGCCACAGCAGAAGCGCCCAAGUCGCAGCCCCUAUCAGAUUCUGGUGAAUCUGCGAAUUCUGCUGUAUAUCUC [G7U U25C U26C C29A G42A] the self-cleavage was 0.18.
Variant UAACAGGAGGCCUCAGCAGAAGCGUUCACGUCGCAGCCCCUAUCAGUUUCUGGUGAAUCUGCGAAUUCUGCUGUAUAUCCC [G8A A13U G42A A47U U80C] has a self-cleavage of 0.2.
Variant UAACAGUGGGCCACAGCAGAAGCGUUCACGUCGCAGCCCCUGUCGGAUUCUGGUGUAUCUGCGGAUACUGCUGUAUAUCUC [G7U A45G A56U A64G U67A] has a self-cleavage of 0.14.
Work on UAACAGUGGGCCACAGCACAAGCGUUCACGUCGCAGCCCCUGUCAGAUCCUGGUGAAUCUGUGAGUUCUGCCGUAUAUCUC [G7U G19C U49C C62U A65G U72C] yielded a self-cleavage of 0.04.
In the case of UAACAGUGGGCCACAGCAGAAGCGUUCACGUCGCAGACCCUGUCAGAUUCUGGCGAAUCUGCGAAUUCUGCUGUAUAUCUC [G7U C37A U54C], the self-cleavage is reported as 0.06.
Work on UAACAGUAGGCCGCAGCAGAAGCGUUCACGUCGCAGCCCCUAUCAGACUCUGGUGUAUCUGCGAAUUCUGCUGUAUAUCUC [G7U G8A A13G G42A U48C A56U] yielded a self-cleavage of 0.1.
For UAACAGGAGGCCACAGCGGAGGCGUUCACGUCGCGGCCCCUGUCAGAUUCUGGUGAAUCUGCGAAUUCCGCUGUAUAUCUC [G8A A18G A21G A35G U69C], the self-cleavage was 0.18.
With UAACAGUGGGCCACAGCAGAAGCGUUCACGUCGCGGCCCCUGUCAGGUUCUGGUGAAUCUGCGAAUUCUGCUGUAUAUCUC [G7U A35G A47G] the self-cleavage was 0.22.
UAACAGGAGGCCCCAGCAGAAGCGUUCACGUCGCAGCCCCUGUCAGAUUCUGGUGAAUCUGCGAAUUCUGCUGUAUAUUUC [G8A A13C C79U] gave a self-cleavage of 0.22.
In the case of UAACAGUGGGCCACAGCAGAAGCGUUCACGUCGCAGCCCCUGUCAGAUUCUGGUGAACCUGCGAAUUCAGCUGUAUAUCUC [G7U U58C U69A], the self-cleavage is reported as 0.2.
In the case of UAACAGUGGGCCACAGCAGAAGCGUUCACGCCGCAGCCCCUGUCGGAUUCAGGUGAACCUGCUAGUUCUGCUGUAUAUCUC [G7U U31C A45G U51A U58C G63U A65G], the self-cleavage is reported as 0.04.
For UAACAGGAGGCCACGGCAGAGGCGUUCACGUCGCAGCCCCUGUCAGUUUCUGGUGAAUCUGCGAAUUCUGCUGUAUAUCUC [G8A A15G A21G A47U], the self-cleavage was 0.32.
Variant UAACAGUGGGCCACAGCAGAAGCGUUCACGUCGCAGCCCCUGUCAGAUUCUGGUGAAUCUGCGAAUUCUGCAGUAUUUCUC [G7U U72A A77U] has a self-cleavage of 0.18.
UAACAGUGGGCCACAGCUGAAGCGUUCACGUCGCAUCCCCUGUCUGAUUCUGGUGAAUCUGCGAAUUCUGCUGUAUAUCUC [G7U A18U G36U A45U] showed a self-cleavage of 0.04.
UAACAGGAGGCCGCAGCAGAAGCGUUCUCGUCGCAGCCCCUGUCAGAUUCUGGUGAAUCUGCGAAUUCUGCUGUACAUCUC [G8A A13G A28U U76C] showed a self-cleavage of 0.23.
UAACAGGAGGCCACGGCAGAAGCGUUCACGUCGCAGCCCCUGACAGAUUCUGGUGAGUCUGCGAAUUCUGCUUUAUAUCUC [G8A A15G U43A A57G G73U] showed a self-cleavage of 0.09.
Variant UAACAGUGGGCCACAGCAGAAGCGCUCACGUCGCAGCCCCUGUCAGAUUCUGGCGAAUCUGCGAAUUCUGCUGUAUGUCUC [G7U U25C U54C A77G] has a self-cleavage of 0.2.
For UAACAGGAGGCCACCGCUGAAGCGUUCACGACGCAGCCCCUGUCAGAUUCUGGUGAAUCUGCGAAUUCUGCUGUAUAUCUC [G8A A15C A18U U31A], the self-cleavage was 0.05.
With UAACAGGAGGCCCCCGCAGAAGCGUUCACGUCGCAGCUCCUGUCAGAUACUGGUGAAUCUGCGAAUUCUGCUGUAUAUCUC [G8A A13C A15C C38U U49A] the self-cleavage was 0.13.
UAACAGUGGGCCACAGCAGAAGCGUUCACGUCGCAUCCCCUGUCAGAUCCUGGUGAAUCUGCGAACUCUGCUGUAUACCUC [G7U G36U U49C U66C U78C] gave a self-cleavage of 0.04.
UAACAGUGGGCCACAGCAGUAGCGUUCACGUCGCAGCCCCUGUCUGAUUCUGGUGAAUCUGCAAAUUCUGCUGUAUAUCUC [G7U A20U A45U G63A] showed a self-cleavage of 0.17.
With UAACAGUGGGCCACAGCAGAAGCGUUCACGUCGCAGCCCCUGCCGGAUUCUGGUGACUCUGCGAACUCUGCUGUAUAUCUC [G7U U43C A45G A57C U66C] the self-cleavage was 0.34.
Variant UAACAGGAGGCCUCAGCAGAAGCGUUCACGACGCAGCCCCUGUCAGAUUCAGGUGAACCUGCGAAUACUGCUGUAUAUCUC [G8A A13U U31A U51A U58C U67A] has a self-cleavage of 0.05.
